# Source: PubChem BioAssay AID686978 (National Center for Advancing Translational Sciences (NCATS), 2013)
# “And” between values parts separate entries of the source, which are not always exact repeats. Equal entries are not always repeated. The campaign covered roughly 420,000 compounds. About 64,000 (15%) were called active. Inconclusive means that the source gave no clear call. Such entries were picked first, then a sample of the others. Calls come from the whole dose curve; as a rule, active = well fitted inhibition curve with a large enough effect; inconclusive = small, poorly fitted or top-dose-only effect; inactive = flat fitted curve, though single readings scatter. A potency beside an inconclusive call is a rough fit, not a confirmed value.
# Assay: qHTS for Inhibitors of human tyrosyl-DNA phosphodiesterase 1 (TDP1): qHTS in cells in absence of CPT; note: nearly all actives have a fitted effect of over 55% in size
# Conditions: DT40 Tdp1-/- hTDP1 cells, no CPT, ATP luminescence, 48 h; activity change, negative = growth inhibition: at 46.2 µM (top of the series) unless noted
# Procedure, shortened: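 Seeded 400 DT40-hTDP1 cells/well (vehicle DMSO, no 20 nM CPT); pinned compounds; ≥48 hr at 37 °C; CellTiter-Glo luminescence as viability measure.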
# % is set by controls: 0 for no effect and ±100 for the full control effect; potency is the fitted concentration of half-maximal effect; tags give direction and shape of the fitted curve.
SMILES,"activity change, negative = growth inhibition",Potency
CC(OC(=O)CCN=C1NS(=O)(=O)c2ccccc21)C(=O)Nc1ccc(F)cc1 (stereo not given),inactive: -11.2%,
CCC(=O)N1CCc2cc(S(=O)(=O)CCC(=O)N3CCN(c4ccccc4)CC3)ccc21,inactive: 2.18%,
CC(=O)c1ccc(NC(=O)CSc2nc3ccccc3c(=O)n2CCCN2CCOCC2)cc1,,"inconclusive: 16.4 µM [inhibitor, partial curve]"
COc1cc(=O)n(C)c2ccccc12,inactive: -1.6%,
COc1cccc(CN2CC(C(=O)N(C)CCCC3CCCC3)CCC2=O)c1 (stereo not given),,"inconclusive: 29.1 µM [inhibitor, single point]"
COCCCNS(=O)(=O)c1ccc2c3c(cccc13)C(=O)S2,,"inconclusive: 20.6 µM [inhibitor, single point]"
COC1C(CO)OC(n2cnc3c(=S)nc(N)[nH]c32)C1O (stereo not given),,"inconclusive: 13 µM [inhibitor, partial curve, poor fit]"
O=C(N/N=C/c1cccc2ccccc12)c1ccncc1,inactive: -16.2%,
CCCCN1CC(c2nc3ccccc3n2CCCCOc2cc(C)ccc2C)CC1=O (stereo not given),,active: 8.2 µM
CN(CCOc1ccccc1)C(=O)CCc1c[nH]c2ccccc12,inconclusive: -34.8% [inhibitor],
COc1ccc(CNC(=O)CSc2nnnn2Cc2ccccc2)cc1,,"inconclusive: 20.6 µM [inhibitor, single point]"
CC(C)(C)Cc1nnc(NC(=O)CSc2ccccc2)s1,,"inconclusive: 14.6 µM [inhibitor, partial curve]"
COC(=O)c1cc2c(s1)-c1ccccc1CC2,,"inconclusive: 29.1 µM [inhibitor, single point]"
Cc1ccc(S(=O)(=O)N2CCCCC2)cc1NC(=O)Cc1c[nH]c2ccccc12,,"inconclusive: 5.17 µM [inhibitor, partial curve]"
Cc1cccc2cc(C#N)c(NCCNC(=O)COc3ccccc3)nc12,,"inconclusive: 29.1 µM [inhibitor, single point]"
Cc1cccc(OCC(=O)Nc2cccc(OCc3cc(=O)n4cccc(C)c4n3)c2)c1,,active: 14.6 µM
C=CCNCCOCCOc1ccc(C)cc1Br,,"inconclusive: 23.1 µM [inhibitor, single point]"
Cc1cc2nc(-c3cccc(NC(=O)c4cccc5ccccc45)c3)oc2cc1C,inactive: -15.9%,
COC(=O)C1=C(C)NC(=O)/C1=C\c1cc(C)n(-c2ccccc2F)c1C,,"inconclusive: 11.6 µM [inhibitor, partial curve]"
CCN(CC)Cc1cc(NC2=NS(=O)(=O)c3ccccc32)ccc1OC(=O)c1ccccc1,,"inconclusive: 25.9 µM [inhibitor, partial curve]"
O=C(Nc1ccc(F)cc1)C(c1ccccc1)N1CCN(CC(=O)N2CCOCC2)CC1 (stereo not given),inactive: 27.1%,
Cc1ccc(-n2c(C)cc(-c3csc(N)n3)c2C)cc1,,"inconclusive: 29.1 µM [inhibitor, single point]"
CCn1cc([N+](=O)[O-])c(C(=O)Nc2ccn(C34CC5CC(CC(C5)C3)C4)n2)n1,,"inconclusive: 16.4 µM [inhibitor, single point]"
CCN(CC)c1ccc2cc(C(=O)Nc3ccccn3)c(=O)oc2c1,,"inconclusive: 7.08 µM [inhibitor, partial curve] and inconclusive: 25.9 µM [inhibitor, partial curve]"

SMILES,"activity change, negative = growth inhibition",Potency
CCCCC[C@H](C)N1C[C@@H](COCc2ccccc2)Oc2cc(N3CCC[C@H]3COC)ccc2S1(=O)=O,,active: 18.4 µM
CCOc1ccc(N2CC(NC(=O)c3ccco3)CC2=O)cc1 (stereo not given),inactive: 7.08%,
CC1CCCN(C(=O)c2cc3ccc4cccnc4c3[nH]2)C1 (stereo not given),,"inconclusive: 20.6 µM [inhibitor, single point]"
C=Cn1cc[n+](CC(=O)c2ccc(-c3ccccc3)cc2)c1,,active: 2.31 µM
CCC1Nc2ncnc(N3CCN(c4ccccc4)CC3)c2N(Cc2ccc(Cl)cc2)C1=O (stereo not given),,active: 20.6 µM
Cc1ccccc1S(=O)(=O)Cc1ccc(C(=O)N2CCN(c3ncccn3)CC2)o1,,"inconclusive: 10.3 µM [inhibitor, partial curve]"
O=C(O)c1cnc(-c2ccccc2)nc1C(F)(F)F,inactive: -2.75%,
CN(C)CCCNC(=S)N1CCn2c(nc3ccccc32)C1,inactive: -6.13%,
CCC(CO)NC1=C([N+](=O)[O-])C(=O)CC(C)(C)C1 (stereo not given),inactive: -18%,
CCc1ccc(CN2C(=O)CCC2(C)C(=O)NC2CCCC2)cc1 (stereo not given),,"inconclusive: 20.6 µM [inhibitor, partial curve, poor fit]"
CCCCC(=O)Nc1ccc(NC(=O)c2cc(OC)c(OC)c(OC)c2)cn1,inconclusive: -30.6% [inhibitor],
O=C(O)c1cccc2sc3cc(Cl)ccc3c(=O)c12,inactive: 1.63%,
COc1ccc(CNC(=S)Nc2ccccc2Cl)cc1,inactive: -12.1%,
CC1=NN(C(=O)c2ccc(Cn3nc(C)cc3C)o2)C(O)(C(F)(F)F)C1 (stereo not given),,active: 2.51 µM
Cc1c(Br)c([N+](=O)[O-])nn1CCCC(=O)N1CCN(c2ccccc2)CC1,,"inconclusive: 13 µM [inhibitor, partial curve, poor fit]"
O=C(OCc1nc2scc(-c3ccccc3)c2c(=O)[nH]1)c1cc([N+](=O)[O-])ccc1Cl,,"inconclusive: 20.6 µM [inhibitor, single point]"
COc1cccc(CNn2c(-c3cccc(C)c3)nc3ccccc3c2=O)c1O,,"inconclusive: 25.9 µM [inhibitor, single point]"
CCn1c(CCCOc2ccc(Cl)cc2Cl)n[nH]c1=S,,"inconclusive: 29.1 µM [inhibitor, single point]"
CCOC(=O)c1c(-c2ccccc2)cn2ccccc12,,"inconclusive: 16.4 µM [inhibitor, single point]"
CN(C(=O)OCc1ccccc1)C(CC(N)=O)C(=O)O (stereo not given),,"inconclusive: 4.61 µM [inhibitor, full curve, poor fit]"
COc1ccc(CCNc2nc(-c3cccnc3)nc3ccccc23)cc1OC,,active: 9.2 µM
COc1ccccc1S(=O)Cc1ccc(C(=O)NCCc2ccc(Cl)cc2)o1 (stereo not given),,"inconclusive: 29.1 µM [inhibitor, single point]"
CCC(=O)Nc1nnc(-c2ccc(Cl)s2)o1,,"inconclusive: 29.1 µM [inhibitor, single point]"
COC(=O)Nc1ncc(CN2CCC(c3ccccc3)CC2)s1,inactive: -25.7%,

SMILES,"activity change, negative = growth inhibition",Potency
COCCCN(C(=S)Nc1cc(Cl)cc(Cl)c1)C(C)c1ccccn1 (stereo not given),,"inconclusive: 20.6 µM [inhibitor, single point]"
Cc1cc(C)c(NC(=O)Cn2c(=O)c3cccn3c3ccccc32)c(C)c1,,inactive
CCn1c(=NC(=O)C2COc3ccccc3O2)sc2c(C)ccc(OC)c21 (stereo not given),,active: 11.6 µM
CC1=C(C)CC(C(=O)NCc2ccc3c(c2)OCO3)C(C(=O)O)C1 (stereo not given),,"inconclusive: 29.1 µM [inhibitor, single point]"
COc1cccc(-n2ccnc2SCC(=O)Nc2c(C)cc(C)cc2C)c1,,"inconclusive: 29.1 µM [inhibitor, single point]"
CCSc1ncc(Cl)c(C(=O)N2CCN(c3ccccc3OC)CC2)n1,,active: 4.11 µM
CC(=O)Nc1ccc(NC(=O)C2CCN(c3ccc(C(F)(F)F)cn3)CC2)cc1,,"inconclusive: 20.6 µM [inhibitor, single point]"
CCn1c(=O)c2c(n3cnnc13)-c1ccccc1CC21CCCCC1,,"inconclusive: 16.4 µM [inhibitor, partial curve, poor fit]"
COc1ccc(NS(=O)(=O)c2ccc(NC(=O)C(CCSC)NC(N)=O)cc2)cc1 (stereo not given),inactive: 31%,
CC1=C(C(=O)N2CCCCCC2)CC(CC(=O)NC2CCCC2)C(=O)N1Cc1ccc(C(C)(C)C)cc1 (stereo not given),,"inconclusive: 29.1 µM [inhibitor, single point]"
N#CC(C(=O)c1ccccc1Cl)=C1SCCCS1,,"inconclusive: 23.1 µM [inhibitor, single point]"
COC(c1ccccc1)c1nnc(CCC(=O)N2CCN(CCOc3ccccc3)CC2)o1 (stereo not given),inactive: -28.4%,
O=C(N/N=C/c1c[nH]c2ccccc12)c1ccn(Cc2ccc(Cl)cc2Cl)n1,,"inconclusive: 20.6 µM [inhibitor, partial curve]"
O=C(Nc1ccc(N2CCOCC2)cc1)C1CC(O)CN1S(=O)(=O)c1ccc(Cl)cc1 (stereo not given),inactive: -18%,
Cc1ccc2cccc(Oc3ncnc4scc(-c5ccccc5)c34)c2n1,,"inconclusive: 29.1 µM [inhibitor, single point]"
O=C1CC[C@@H]2C[C@@]3(C[C@@H]4CCN1[C@H]24)Nc1cc([N+](=O)[O-])ccc1NC3=NCc1ccccc1,,"inconclusive: 10.3 µM [inhibitor, partial curve, poor fit]"
CCCCN(C)C(=O)CCC(=O)Nc1ccc2nc(N3CCOCC3)cc(C)c2c1,,"inconclusive: 14.6 µM [inhibitor, single point]"
COCCCNC(=O)c1cc(Nc2ccc(OC)cc2OC)nc2ccccc12,inconclusive: -36.4% [inhibitor],
COc1ccc(NC(=O)C2Cc3c(-c4ccccc4Oc4ccccc4)ccnc3O2)cc1 (stereo not given),,"inconclusive: 18.4 µM [inhibitor, single point]"
CC(=O)COc1cc2c(-c3cc4ccccc4o3)cc(=O)oc2cc1C,inactive: -19.7%,
O=C(Nn1c(SCc2cccc([N+](=O)[O-])c2)nc2ccccc2c1=O)c1ccccc1,,"inconclusive: 23.1 µM [inhibitor, single point]"
CCc1ccc(N2CC(C(=O)Nc3ccc(S(=O)(=O)N4CCCCC4)cc3)CC2=O)cc1 (stereo not given),,"inconclusive: 20.6 µM [inhibitor, single point]"
